# According to PubChem BioAssay AID504339 (National Center for Advancing Translational Sciences (NCATS), 2011):
# Screen size: about 390,000 compounds; about 17,000 (4.4%) were called active. The inconclusive results got no clear call from the source; some entries with a clear call stand among them for comparison. Calls follow the shape of the dose curve; as a rule, active = well fitted inhibition curve with a large enough effect; inconclusive = small, poorly fitted or top-dose-only effect; inactive = no such curve, though single readings can be large or run the other way. Potencies beside an inconclusive call are fits to weak or partial responses and may not hold up.
# Target: Lysine-specific demethylase 4A (Homo sapiens) (UniProt O75164)
# UniProt O75164, sequence (O75164 whole entry, looked up, the tested form may be a part): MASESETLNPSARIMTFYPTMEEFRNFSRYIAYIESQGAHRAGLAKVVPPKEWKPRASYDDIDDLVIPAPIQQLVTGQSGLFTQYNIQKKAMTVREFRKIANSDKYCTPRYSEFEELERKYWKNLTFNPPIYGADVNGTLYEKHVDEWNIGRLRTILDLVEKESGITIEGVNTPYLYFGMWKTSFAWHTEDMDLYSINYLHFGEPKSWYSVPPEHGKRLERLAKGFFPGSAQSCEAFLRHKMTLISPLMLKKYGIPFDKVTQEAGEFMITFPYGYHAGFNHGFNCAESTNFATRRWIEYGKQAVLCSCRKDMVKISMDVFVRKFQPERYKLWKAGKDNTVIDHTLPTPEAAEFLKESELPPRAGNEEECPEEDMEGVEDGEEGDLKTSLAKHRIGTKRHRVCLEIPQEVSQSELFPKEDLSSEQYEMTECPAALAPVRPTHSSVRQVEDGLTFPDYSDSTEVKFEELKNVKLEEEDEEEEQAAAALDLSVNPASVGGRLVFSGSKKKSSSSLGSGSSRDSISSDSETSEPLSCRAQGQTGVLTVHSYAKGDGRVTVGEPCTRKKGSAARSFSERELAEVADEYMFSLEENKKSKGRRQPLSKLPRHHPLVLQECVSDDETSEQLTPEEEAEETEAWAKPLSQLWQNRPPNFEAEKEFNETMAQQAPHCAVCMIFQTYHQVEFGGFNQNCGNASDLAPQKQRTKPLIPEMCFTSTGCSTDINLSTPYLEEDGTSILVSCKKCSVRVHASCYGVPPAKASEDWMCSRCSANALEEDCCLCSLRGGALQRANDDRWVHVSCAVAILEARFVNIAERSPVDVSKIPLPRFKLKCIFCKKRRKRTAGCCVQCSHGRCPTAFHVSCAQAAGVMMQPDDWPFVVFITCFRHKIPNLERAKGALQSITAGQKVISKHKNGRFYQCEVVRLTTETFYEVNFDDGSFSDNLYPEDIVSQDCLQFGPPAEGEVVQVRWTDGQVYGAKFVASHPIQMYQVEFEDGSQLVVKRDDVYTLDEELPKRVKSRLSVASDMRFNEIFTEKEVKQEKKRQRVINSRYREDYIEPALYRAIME
# Assay: qHTS Assay for Inhibitors of JMJD2A-Tudor Domain; also: nearly all actives have a fitted effect of over 50% in size
# Conditions: AlphaScreen JMJD2A-Tudor / H3K4me3 peptide binding; activity change, negative = inhibition: at 114 µM (top of the series)
# % is scaled to controls: 0 for no effect and ±100 for the full control effect; potency is read from the fitted curve at half-maximal effect; tags tell the direction and shape of the fitted curve.
Compound,Potency,"activity change, negative = inhibition"
COc1ccc(CCC(=O)N2C[C@H]3C[C@@H](C2)c2cccc(=O)n2C3)cc1,"inconclusive: 89.1 µM [inhibitor, single point]",
COc1ccc2cc1Oc1ccc(cc1)C[C@H]1c3cc(c(OC)cc3CCN1C)Oc1c(O)c(OC)cc3c1[C@H](C2)N(C)CC3,"inconclusive: 56.2 µM [inhibitor, partial curve]",
Cc1ccnc(-n2c(C)cc(C=C3C(=O)N(C)C(=S)N(C)C3=O)c2C)c1,"inconclusive: 56.2 µM [inhibitor, partial curve]",
CCOC(=O)c1cc(C)sc1/N=C/C1C(=O)NC(=S)NC1=O,"inconclusive: 100 µM [inhibitor, single point]",
Cc1cccc(OCC(=O)N2CCN(Cc3ccc([N+](=O)[O-])cc3)CC2)c1,active: 10 µM,
O=C(c1ccc2c(c1)N(Cc1ccc(F)cc1)CCS2)N1CCC2(CC1)OCCO2,,inactive: -34.6%
COC(=O)C1=Nc2ccccc2/C1=C\c1c(O)n(-c2ccc(Br)cc2)c(=O)[nH]c1=O,"inconclusive: 39.8 µM [inhibitor, single point]",
O=C(CNC(=O)OCc1ccccc1)Nc1ccc(Br)cc1C(=O)c1ccccc1,"inconclusive: 100 µM [inhibitor, single point]",
Cc1ncsc1CCOC(=O)c1ccc([N+](=O)[O-])cc1,"inconclusive: 39.8 µM [inhibitor, single point]",
C[C@H]1CC[C@@]2(C)[C@@H](CC[C@@H]3[C@@H]2CC[C@]2(C)[C@@H](O)CC[C@@H]32)C1,,inactive: -16.9% [at 11.4 µM]
O=C(COc1ccccc1)N1CCN(C2CCCC2)CC1,active: 7.94 µM,
CCOc1cc(CNCCc2c[nH]c3ccccc23)cc(Cl)c1OC,"inconclusive: 22.4 µM [inhibitor, full curve]",
Cc1cccc(N2C(=O)NC(=O)/C(=C\C=C\c3ccco3)C2=O)c1,"inconclusive: 50.1 µM [inhibitor, partial curve]",
COc1ccccc1N=c1scc(-c2ccc(S(=O)(=O)N3CCCC3)cc2)n1C,"inconclusive: 20 µM [inhibitor, full curve]",
CN1C(=O)N(C)C(=O)C2(Cc3c(nc4ccccn4c3=O)N3CCc4ccccc4C32)C1=O (configuration not stated),"inconclusive: 39.8 µM [inhibitor, single point]",
N=C1/C(=C\c2ccc(OC(=O)c3ccccc3Cl)cc2)C(=O)N=C2SC(N3CCOCC3)=NN12,active: 50.1 µM,
O=c1c2ccccc2[se]n1-c1ccccc1,active: 8.91 µM,
CN(C)S(=O)(=O)c1cc(NC(=O)COC(=O)Cc2ccccc2)ccc1Cl,"inconclusive: 22.4 µM [inhibitor, partial curve]",
COc1ccc(CCNCc2cccc(C(F)(F)F)c2)cc1OC,active: 44.7 µM,
CCc1nnc(NS(=O)(=O)c2ccc(N=Cc3c(O)n(-c4ccc(Cl)cc4)c(=O)[nH]c3=O)cc2)s1,active: 35.5 µM,
C[n+]1c(-c2ccccc2)c2cc(N)ccc2c2ccc(N)cc21,"inconclusive: 50.1 µM [inhibitor, partial curve]",
COc1ccc(CCNCc2ccncc2)cc1OC,active: 11.2 µM,
CCN(C[C@H]1N[C@@](C)(C(=O)OC)[C@H]2C(=O)N(Cc3ccccc3)C(=O)[C@@H]12)S(=O)(=O)c1ccc(C(C)(C)C)cc1,"inconclusive: 50.1 µM [inhibitor, partial curve]",
c1ccc2c(c1)Nc1ccccc1S2,"inconclusive: 50.1 µM [inhibitor, partial curve, poor fit]",

Compound,Potency,"activity change, negative = inhibition"
Clc1ccc(OCCCN2CCCC2)cc1Cl,active: 3.98 µM,
O=c1[nH]c(=O)n(C2CCCCCC2)c(O)c1C=NC1CCN(Cc2ccccc2)CC1,"inconclusive: 70.8 µM [inhibitor, single point]",
CN(CC(=O)Nc1cccc(F)c1)CC(=O)Nc1cccc(S(=O)(=O)N(C)c2ccccc2)c1,active: 0.891 µM,
O=C(O)CP(=O)(O)c1ccc(Cl)cc1,active: 39.8 µM,
N[C@@H](Cc1c[nH]c2ccccc12)c1nnc(SCc2c(F)cccc2Cl)o1,"inconclusive: 56.2 µM [inhibitor, partial curve]",
O=C(CNC1CCCCC1)N1CCC2(CC1)OCCO2,active: 3.16 µM,
CSc1ccc(CN2CCN(c3ccccc3C)CC2)cc1,active: 4.47 µM,
COC(=O)C1=C(c2ccccc2OCc2ccccc2)C[C@@H]2CC[C@H]1N2C(=O)NCCOc1ccc(OC)cc1,"inconclusive: 63.1 µM [inhibitor, partial curve, poor fit]",
S=c1[nH]c2ccccc2[nH]1,"inconclusive: 28.2 µM [inhibitor, single point]",
S=c1[nH]nc(-c2ccccc2)n1CC1CCCO1 (configuration not stated),active: 39.8 µM,
COC(=O)C1=C(c2ccc(OCc3ccccc3)cc2)C[C@@H]2CC[C@H]1N2C(=O)NCc1ccc(N(C)C)cc1,"inconclusive: 10 µM [inhibitor, partial curve]",
COc1cc2c(cc1OC)C(C)N(C(=O)c1nccnc1C(=O)O)CC2 (configuration not stated),active: 50.1 µM,
Cc1ccc(NC(=O)C2CCN(C(=O)c3cnn(-c4ccccc4)c3-n3cccc3)CC2)cc1Cl,"inconclusive: 15.8 µM [inhibitor, full curve, poor fit]",
CCc1c(C)nc(N)nc1N1N=C1SCC(=O)OC,,inactive: -19.6%
O=C(COc1ccc(Br)cc1)N1CCN(C2CCCC2)CC1,,inactive: -7.79%
COc1ccccc1N1CCN(Cc2ccc3c(c2)OCO3)CC1,active: 20 µM,
COc1cc(-c2ccc(N)c(OC)c2)ccc1N,"inconclusive: 63.1 µM [inhibitor, partial curve, poor fit]",
CCn1ncc(-c2ccnc3cc(C(=O)O)nn23)c1C,active: 25.1 µM,
CCN1CCN(CC(=O)c2c(C)n(Cc3ccccc3)c3ccc(OC)cc23)CC1,"inconclusive: 39.8 µM [inhibitor, single point]",
CC[N+]1(C)CCCC(OC(=O)C(O)(c2ccccc2)c2ccccc2)C1 (configuration not stated),"inconclusive: 89.1 µM [inhibitor, single point]",
O=[N+]([O-])c1ccc(N2CCNCC2)cc1N1CCCCCC1,"inconclusive: 7.08 µM [inhibitor, partial curve]",
O=C1NC(=O)[C@]2(Cc3ccccc3N3CCN(c4ccccc4)CC32)C(=O)N1c1ccccc1 (some centres not stated),"inconclusive: 50.1 µM [inhibitor, partial curve]",
COC(=O)C1=C(c2cc3ccccc3s2)C[C@@H]2CC[C@H]1N2C(=O)NCc1ccccc1,"inconclusive: 56.2 µM [inhibitor, partial curve]",
CC(C)[N+]12CCC(CC1)C(C(O)(c1ccccc1)c1ccccc1)C2 (configuration not stated),"inconclusive: 35.5 µM [inhibitor, single point]",

Compound,Potency,"activity change, negative = inhibition"
Fc1ccc(N2CCN(Cc3ccc4c(c3)OCO4)CC2)cc1,active: 3.55 µM,
CCOc1nc(NC(C)C)nc(N2CC3CC(C2)c2cccc(=O)n2C3)n1 (configuration not stated),active: 20 µM,
CCN1CCN(Cc2cccc(Oc3ccccc3)c2)CC1,active: 3.16 µM,
COc1ccc(CN(CCc2c[nH]c3ccccc23)Cc2ccc(OC)cc2)cc1,"inconclusive: 25.1 µM [inhibitor, full curve]",
CN1CCC2(CC1)C(C#N)=C(N)NC(S)=C2C#N,active: 3.98 µM,
COc1ccccc1OCC(=O)N1CCN(Cc2ccc3c(c2)OCO3)CC1,,inactive: -21.9%
CCC(C)n1c(C)cc(C(N)=O)c1C (configuration not stated),"inconclusive: 25.1 µM [inhibitor, full curve, poor fit]",
COc1cc(OC)cc(-c2sc3ccc(OC)cc3c2-c2ccc(OCCN3CCOCC3)cc2)c1,"inconclusive: 25.1 µM [inhibitor, full curve]",
COC(=O)C(O)(c1c(C)[nH]n(-c2ccccc2)c1=O)C(F)(F)F (configuration not stated),,inactive: -29.9% [at 57.1 µM]
O=c1[nH]c2ccccc2o1,active: 31.6 µM,
CCOc1cccc(OCC)c2c(C)[n+](CC3CCCO3)c(C)c1-2 (configuration not stated),active: 35.5 µM,
O=C1NC(=O)C(CCOc2ccccc2)(CCc2ccccc2)C(=O)N1,,inactive: 12.6%
O=C1CC(N2CC=C(c3ccc(F)cc3)CC2)C(=O)N1c1ccc(F)cc1 (configuration not stated),"inconclusive: 89.1 µM [inhibitor, single point]",
CN(C)c1ccc(-[n+]2c(-c3ccccc3)cc(-c3ccccc3)cc2-c2ccccc2)cc1,"inconclusive: 39.8 µM [inhibitor, partial curve]",
O=C(CCN1CCOCC1)NCC(=O)Nc1ccc(Br)cc1C(=O)c1ccccc1,"inconclusive: 89.1 µM [inhibitor, single point]",
CCOc1ccc(CN(CCc2ccc3c(c2)OCO3)Cc2cccc(Br)c2)cc1,active: 5.01 µM,
COC(=O)C1=C(c2cccc(OCc3ccccc3)c2)C[C@@H]2CC[C@H]1N2C(=O)NCc1ccc(C(C)(C)C)cc1,,inactive: -24.6%
Cc1ccc(C(=O)C2C(=O)c3ccccc3C2=O)cc1,"inconclusive: 79.4 µM [inhibitor, single point]",
Nc1ccc([N+](=O)[O-])cc1,,inactive: -18.6%
c1ccc(Nc2ccc(Nc3ccccc3)cc2)cc1,active: 20 µM,
C[N+]12CCC(CC1)C(C(O)(c1ccccc1)c1cccs1)C2 (configuration not stated),,inactive: -31.5%
S=c1[nH]nc(-c2ccco2)n1-c1cccc2ccccc12,active: 39.8 µM,
Cc1ccc(NC(=O)CN(C)CC(=O)Nc2cccc(F)c2)cc1[N+](=O)[O-],"inconclusive: 44.7 µM [inhibitor, partial curve]",
COc1cc(Cc2ccc(N)c(OC)c2)ccc1N,"inconclusive: 63.1 µM [inhibitor, partial curve, poor fit]",
